Measured values as given in article PMC7819943, “Rice protein-binding microarrays: a tool to detect cis-acting elements near promoter regions in rice”.
This is one part of the list.

These sequences were tested against T1, OsWOX13 (Oryza sativa, UniProt Q5QMM3 1-267) (assay: protein-binding microarray (RPBM); PBS, 2% BSA, 51.3 ng/ul salmon testes DNA, 50 uM zinc acetate, 200 nM TF, 25 C, 1 h; high values mean tight binding). Details: protein: recombinant; tags: N-terminal polyhistidine and DsRed monomer fusion (pET32a); label: CyDye5-dUTP incorporated in the synthesized complementary strand; 3' TTTTT single-stranded linker to array surface; dsDNA, one strand shown.
T1 sequence: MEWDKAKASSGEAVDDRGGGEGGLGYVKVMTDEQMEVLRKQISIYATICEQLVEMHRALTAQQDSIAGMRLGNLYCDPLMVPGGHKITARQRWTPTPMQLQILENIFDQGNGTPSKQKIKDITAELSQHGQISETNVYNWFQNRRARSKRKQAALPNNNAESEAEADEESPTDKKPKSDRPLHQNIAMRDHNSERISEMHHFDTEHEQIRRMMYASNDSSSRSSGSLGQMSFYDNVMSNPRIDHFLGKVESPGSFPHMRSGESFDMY
Procedure, shortened: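 An Axon 4000B scanner gave the binding signal as per-feature fluorescence intensity in arbitrary units. This followed washing of a custom Agilent array that had been incubated for 1 h at 25 °C with 200 nM protein in PBS, 2% BSA, salmon testes DNA and 50 µM zinc acetate. The proteins were transcription factors fused at the N-terminus to polyhistidine and DsRed, expressed in E. coli BL21-CodonPlus and purified on Ni–NTA.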
With “CCTAGTTAATAGTTAGATCTGATTTACGTATATAGAGAAACGGAGTCACCTAGTGCAG” the binding signal was 5270 fluorescence intensity (a.u.).
In the case of “ATAGATGAGATTAGCTGCAGTCCTTTAACGAATTGTACCTCGGAGTCACCTAGTGCAG”, the binding signal is reported as 13100 fluorescence intensity (a.u.).
In the case of “GTGCATTTGCTTGTAATAATTGGCATGTAAATGCCCTCTCCGGAGTCACCTAGTGCAG”, the binding signal is reported as 4140 fluorescence intensity (a.u.).
For “TCTGCTTAATTGGGCCGATCTCAAGCCCTTGGCGGAACTTCGGAGTCACCTAGTGCAG”, the binding signal was 13100 fluorescence intensity (a.u.).
With “GCCCCTTTGTTAACATGATTATCTTGTTTTCACAGAATAACGGAGTCACCTAGTGCAG” the binding signal was 6640 fluorescence intensity (a.u.).
With “GTGTAATTAAGTGGCTGACAGAGGAGAGTAATTAGCCGTACGGAGTCACCTAGTGCAG” the binding signal was 22200 fluorescence intensity (a.u.).
With “CCAATTAGGACCCAAATTAATCTTTGCCTTCCTGGACTTGCGGAGTCACCTAGTGCAG” the binding signal was 5190 fluorescence intensity (a.u.).
In the case of “CCAGGCAAATTTGATGATCTGAGACCAGGAATCCTTGGACCGGAGTCACCTAGTGCAG”, the binding signal is reported as 4770 fluorescence intensity (a.u.).
With “GTGTTATTGACTGGTATAGTTATTACCTGCTCTACTACCCCGGAGTCACCTAGTGCAG” the binding signal was 32400 fluorescence intensity (a.u.).
With “TTGTGATTTTCTTAAATCTCAACCACCCGCCCATCTCCCCCGGAGTCACCTAGTGCAG” the binding signal was 13300 fluorescence intensity (a.u.).
“AGATGACAGATTTTGCAGCTTGAACGAATCATGCGTTTTCCGGAGTCACCTAGTGCAG” was tested, and the binding signal was 9480 fluorescence intensity (a.u.).
“TTCTTCCTCTTGCCAATTAATTCCTCTCCAAGAACCAAGTCGGAGTCACCTAGTGCAG” was tested, and the binding signal was 3470 fluorescence intensity (a.u.).
For “GTTGGTGGATTGACACGACTACACGGAGTACCTAGTATTTCGGAGTCACCTAGTGCAG”, the binding signal was 14800 fluorescence intensity (a.u.).
“ACCTGTAGTTGCCAATCAAACATGTCTTACGGCCTGTTTGCGGAGTCACCTAGTGCAG” was tested, and the binding signal was 8480 fluorescence intensity (a.u.).
For “CTAAATTTTGGTAACTATATAAGAAATCCTACCAAAATTTCGGAGTCACCTAGTGCAG”, the binding signal was 5400 fluorescence intensity (a.u.).
For “CCATTTTAACTGACATGATTAGCCAACTATGATCATAATGCGGAGTCACCTAGTGCAG”, the binding signal was 46400 fluorescence intensity (a.u.).
“AGCATAATTTAAACAAATATTTATTTAACAAATAGTTTAACGGAGTCACCTAGTGCAG” was tested, and the binding signal was 17600 fluorescence intensity (a.u.).
For “CTGTGCCAGTCAATCAGTCACAGTTGGTAATGCTAGTAAGCGGAGTCACCTAGTGCAG”, the binding signal was 26400 fluorescence intensity (a.u.).
With “AAAACAAGGGTAGATTGATGAACCAATACAGGGAGAAGATCGGAGTCACCTAGTGCAG” the binding signal was 5800 fluorescence intensity (a.u.).
In the case of “ATTCTCACTGACTGTTTACCAATTACTTCCTTCATCCAATCGGAGTCACCTAGTGCAG”, the binding signal is reported as 7910 fluorescence intensity (a.u.).
In the case of “TTTGTGAATGATTTGCAGATTTGTGGATGGGAATATATTGCGGAGTCACCTAGTGCAG”, the binding signal is reported as 23500 fluorescence intensity (a.u.).
With “GGGTTGAAATTTTAATTTATATATCCTTTCCCAATTCCATCGGAGTCACCTAGTGCAG” the binding signal was 11000 fluorescence intensity (a.u.).
“GATCCAACCAGTCCCCATTGATTGGGGCCAATGTACTTTCCGGAGTCACCTAGTGCAG” was tested, and the binding signal was 3610 fluorescence intensity (a.u.).
With “TAAAACAAATCAAAGATTACAGACTAGTATGATTTTGACGCGGAGTCACCTAGTGCAG” the binding signal was 11200 fluorescence intensity (a.u.).
For “GCAAATTGGATGACTATTACAACATAAATGTGATTCATCACGGAGTCACCTAGTGCAG”, the binding signal was 37300 fluorescence intensity (a.u.).
With “ATTTCTATCACCGTAATCAGAAGAGCGTTTATAACACCATCGGAGTCACCTAGTGCAG” the binding signal was 8800 fluorescence intensity (a.u.).
With “CTGACTGGTCATGGACAGAGATTTAATACACATTCTGCTTCGGAGTCACCTAGTGCAG” the binding signal was 3160 fluorescence intensity (a.u.).
With “ATCTGTAATTTGTTTTATTATTAGACAACGTTTAATACTTCGGAGTCACCTAGTGCAG” the binding signal was 14500 fluorescence intensity (a.u.).
With “CAAACAAATTTTGGTCTTTGACAGGCTGAGACCGAATTACCGGAGTCACCTAGTGCAG” the binding signal was 13400 fluorescence intensity (a.u.).
With “CTCTATTGATTACTGCCTTATTGCCATCTCACTTCGATAACGGAGTCACCTAGTGCAG” the binding signal was 29300 fluorescence intensity (a.u.).
With “GCCTTATACATGATTATAATCTTCTAACTTCTTCTTAACTCGGAGTCACCTAGTGCAG” the binding signal was 23900 fluorescence intensity (a.u.).
“AGATAATTTAATTGTTAACCATGTATGGCTGTAAGGGTATCGGAGTCACCTAGTGCAG” was tested, and the binding signal was 43900 fluorescence intensity (a.u.).
For “CATCCTCATTAACGGCAGATTAATACTATTTAGTCCATCTCGGAGTCACCTAGTGCAG”, the binding signal was 3220 fluorescence intensity (a.u.).
With “TTGTATTTGTTAATGGAATGCTGATTGGTGCACAGCAAACCGGAGTCACCTAGTGCAG” the binding signal was 29900 fluorescence intensity (a.u.).
In the case of “AGTATAAGATTAATATTAATTCATCCATTTCAGTTATTTCCGGAGTCACCTAGTGCAG”, the binding signal is reported as 5310 fluorescence intensity (a.u.).
“TCCCTTAACGTCTCCGAATGATTGTAACAGTATATCATCCCGGAGTCACCTAGTGCAG” was tested, and the binding signal was 7180 fluorescence intensity (a.u.).
“TAGTTTAATCAATTTACGTGTGACCACTAATATAATTAACCGGAGTCACCTAGTGCAG” was tested, and the binding signal was 16900 fluorescence intensity (a.u.).
For “GGAACCCTATCATCTAGGCAATCATGCCGGCACAGTGCATCGGAGTCACCTAGTGCAG”, the binding signal was 4440 fluorescence intensity (a.u.).
For “GAATCCATTCATTGATAGTATGATTTTATGAAACTACACTCGGAGTCACCTAGTGCAG”, the binding signal was 7360 fluorescence intensity (a.u.).
With “ACCACGTTTGATTTAGCCAATCACATTCACCAAGGCAAATCGGAGTCACCTAGTGCAG” the binding signal was 16100 fluorescence intensity (a.u.).
“CTAGAAATTAGGTGATTAATTTATTAAACACAATATTGCCCGGAGTCACCTAGTGCAG” was tested, and the binding signal was 56900 fluorescence intensity (a.u.).
For “AGTAATTATTAATTATTTTCCTATCATTTGATTTATTGTTCGGAGTCACCTAGTGCAG”, the binding signal was 35700 fluorescence intensity (a.u.).
